Variants at the background level are over-represented here.
B1: TPR 5TU (parent)
chain: GGAUCUUCUCGAUCUAACAAAAAAGACAAAUCUGCCACAAAGCUUGAGAGCAUCUUCGGAUGCAGAGGCGGCAGCCUUCGGUGGCGCGAUAGCGCCAACGUUCUCAACUAUGACACGCAAAACGCGUGCUCCGUUGAAUGGAGUUUAUCAUG

Variants of: B1
Experiment: polymerase ribozyme fitness, log enrichment relative to wild type (log ratio); higher = more active; in vitro selection for triplet polymerase activity
Summary of the method: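 A single round of triplicate in vitro selection, including frozen incubation at −7 °C, was applied to PCR-built, transcribed mutant libraries of each subunit of a heterodimeric triplet polymerase ribozyme. Illumina sequencing of input and output libraries retained genotypes with ≥10 input reads and ≥1 read per output. Fitness is the base-2 logarithm of genotype enrichment divided by wild-type enrichment, from inverse-variance-weighted replicate averages.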

Variant | polymerase ribozyme fitness (log ratio)
A24C A66G C96G C103A A120G | ≤ -4.2
A24C A73G G86U C99G C149G | ≤ -4.2
A24C C27G C36A C95U C99U G124U C129G | ≤ -4.2
A24C C32A A121U U145C U146C | ≤ -4.2
A24C C32G C87A U146C | ≤ -4.2
A24C C32G U33C C57A C95U C103G C105U | ≤ -4.2
A24C C32U A39U U90A C95G A138U U144A | ≤ -4.2
A24C C35A A40C U55G U56A G59U | ≤ -4.2
A24C C35G C36A C87U A98G C105U U109C A110U C116A A142U | ≤ -4.2
A24C C36A A49U G65A U82G G92C U130A U139G | ≤ -4.2
A24C C36G C51A C85A A115U | ≤ -4.2
A24C C43U C54U G86U G94C C99U U145G | ≤ -4.2
A24C C51G U56A A89C C103A U144G U145G | ≤ -4.2
A24C C54U U56A C69G C85A C103U U148G | ≤ -4.2
A24C C57G G58C G88A C116U G124A G141C | ≤ -4.2
A24C C57U U61A C95G | ≤ -4.2
A24C C69A | ≤ -4.2
A24C C75A C76A C95U A120U | ≤ -4.2
A24C C75G A107U | ≤ -4.2
A24C C85A A89U C99A G124A G141U | ≤ -4.2
A24C C85U U104G A138U | ≤ -4.2
A24C C93A | ≤ -4.2
A24C C93U C125U U148G | ≤ -4.2
A24C C99U U102G A110G U130G G133U U146A | ≤ -4.2

Variant | polymerase ribozyme fitness (log ratio)
A24C C118U C129G | ≤ -4.2
A24C G34A G48C U78C G136U | ≤ -4.2
A24C G42A C76U U77G | ≤ -4.2
A24C G42C G48C G88A C93A G141U | ≤ -4.2
A24C G42C G94U U101C U144C | ≤ -4.2
A24C G46A U90G G94U A106G | ≤ -4.2
A24C G46C C132A | ≤ -4.2
A24C G48C G58A A89C A97U C103A | ≤ -4.2
A24C G50A G59A U61A C63G G84A | ≤ -4.2
A24C G50U C95A U127A G136U G141C C149G | ≤ -4.2
A24C G58A | ≤ -4.2
A24C G58A G59A A147C | ≤ -4.2
A24C G59A A91C A120G | ≤ -4.2
A24C G65C G86U | ≤ -4.2
A24C G67C C87U A122U A142G | ≤ -4.2
A24C G68A C76U C93A U139G A142G | ≤ -4.2
A24C G68U A121G U151G | ≤ -4.2
A24C G74A G81A C93U C108G A137U U146G | ≤ -4.2
A24C G74C | ≤ -4.2
A24C G74U A119G | ≤ -4.2
A24C G81U C87G U104G A110U | ≤ -4.2
A24C G83A C87G A142U | ≤ -4.2
A24C G92U U146A G152C | ≤ -4.2
A24C G94A C95U A115U C116U A142G G143C | ≤ -4.2

Variant | polymerase ribozyme fitness (log ratio)
A24C U31A A52C U53A G58C G88A U109G | ≤ -4.2
A24C U33A A49G U55A G70U C96G U101G C105G A120U G141A | ≤ -4.2
A24C U33A C35G U53A U82C G92U G136A | ≤ -4.2
A24C U33G G133U U145G | ≤ -4.2
A24C U33G U55A G92A U135A | ≤ -4.2
A24C U44A A97C A98U U101G U134A | ≤ -4.2
A24C U53G C93A C125U U130A A138C | ≤ -4.2
A24C U55A A73U A98G U109C U135A G140U | ≤ -4.2
A24C U56A G59A C93A U127A | ≤ -4.2
A24C U56A U77A G88U A115C A121U U144A | ≤ -4.2
A24C U78A G92C | ≤ -4.2
A24G A26U A40C U44A G80C | ≤ -4.2
A24G A28C A30U G58A C96U C103U | ≤ -4.2
A24G A28G C72U G94U A98U C99A A150C | ≤ -4.2
A24G A37G A39U A137G G143U | ≤ -4.2
A24G A37U G70C C76G A138U | ≤ -4.2
A24G A40C A52G C54G C85A C96U C99G | ≤ -4.2
A24G A41C G88U C95U G141U | ≤ -4.2
A24G A47G G48U C57U A64C G67A C75G C87U C96G C108G A113C G133C | ≤ -4.2
A24G A47U A89U A98U U144A A150G | ≤ -4.2
A24G A49C C51A U78G G81C | ≤ -4.2
A24G A52C C93U C105A A120C G126U C149A A150C | ≤ -4.2
A24G A52C G68A U151G | ≤ -4.2
A24G A52G G84A C87G A98U C108U C118U G133U | ≤ -4.2

Variant | polymerase ribozyme fitness (log ratio)
A24G A52G G84A C87G U101G A119G G141U | ≤ -4.2
A24G A60U C75G G133U U145G | ≤ -4.2
A24G A66U C69A G81A C85U A137G | ≤ -4.2
A24G A73G G92U G133U G141A | ≤ -4.2
A24G C27A U61A U78C C103U C114U | ≤ -4.2
A24G C27G A28G C32A U55A U56A C76A C85A G92C U130G | ≤ -4.2
A24G C27G G50A A73G G84A C85A A89G C99G G126U U130C | ≤ -4.2
A24G C32U A41C G48A G74A U130G G136A | ≤ -4.2
A24G C32U C35G A64U C96A U135C U146A | ≤ -4.2
A24G C35A A64G G68U A91U U109A G126U A137U G152U | ≤ -4.2
A24G C35U A89U G92C C125A | ≤ -4.2
A24G C36A C96U U151G | ≤ -4.2
A24G C36A G50A U77A G84A | ≤ -4.2
A24G C36G U56A C103G A106U C118A | ≤ -4.2
A24G C36U C87U G133C | ≤ -4.2
A24G C38G A40U A110C | ≤ -4.2
A24G C38G A40U G84C U90G G141A | ≤ -4.2
A24G C38U A49C U82A C87A C116U G126U A142G | ≤ -4.2
A24G C38U U55A G58A A60C A73G C95A | ≤ -4.2
A24G C51G G59C G92C C99U C125U | ≤ -4.2
A24G C54A U55A A91G C123U U127A U139A U145A | ≤ -4.2
A24G C54G G68U C76G G81A C85G C118U | ≤ -4.2
A24G C54U C76G C85G C114U | ≤ -4.2
A24G C57A A64G C75G C129A | ≤ -4.2

Variant | polymerase ribozyme fitness (log ratio)
A24G C57A G59U C75A U90G C103G C108U A110C G133U G141C | ≤ -4.2
A24G C69A G86A G88A C99A A137U | ≤ -4.2
A24G C75U G84U | ≤ -4.2
A24G C76A C85A A110C C131G | ≤ -4.2
A24G C76G G86A A91U A97G G140C | ≤ -4.2
A24G C87A C118U G140C | ≤ -4.2
A24G C87G C93U C103U A106U G141C | ≤ -4.2
A24G C93A | ≤ -4.2
A24G G25A G84A C125G G152A | ≤ -4.2
A24G G34C G70A G81U C95U C105A A147G | ≤ -4.2
A24G G46A G50A C57G G92U U145A | ≤ -4.2
A24G G48U C54A G92C G141A U151A | ≤ -4.2
A24G G50A C72U G88C | ≤ -4.2
A24G G50C C87U | ≤ -4.2
A24G G59C C87A | ≤ -4.2
A24G G62A C85U G100U C103A | ≤ -4.2
A24G G62U C85U U146A | ≤ -4.2
A24G G67C C69G C85G U102C U146A | ≤ -4.2
A24G G71C C79G C85A G124U U130G U148C | ≤ -4.2
A24G G74C G92A U104C C105G A110G G112U A113C A119U | ≤ -4.2
A24G G80A C96A U111C | ≤ -4.2
A24G G80A G88U U148C | ≤ -4.2
A24G G86U U148A | ≤ -4.2
A24G G92A | ≤ -4.2

Variant | polymerase ribozyme fitness (log ratio)
A24G G94C C96G | ≤ -4.2
A24G U31C | -3.52
A24G U31C C32A A47C U56A C57G C85U G117A G141C | ≤ -4.2
A24G U44A A49C U82G A122U G140C C149U | -4.02
A24G U44A A89U A91G A107U | ≤ -4.2
A24G U44G G50C G71U C85G G92A G136A | ≤ -4.2
A24G U45G U53A C85U A119C A137C | ≤ -4.2
A24G U53C C54A G94C C123A G126C U134A U148A | ≤ -4.2
A24G U56A A60U G65U A91U C96G A120U | ≤ -4.2
A24G U56A C85U U102G U146C | ≤ -4.2
A24U A26C A28U G65A G68A G92U G136A | ≤ -4.2
A24U A26C A29U A40U A52G G62U C85U | ≤ -4.2
A24U A26U A60C C79G C96G A120U | ≤ -4.2
A24U A26U C93G C99U | ≤ -4.2
A24U A26U G34A G88C A138U | ≤ -4.2
A24U A28C A40U A52U G68A C79G | ≤ -4.2
A24U A28C A52G G71A C96G A137C | ≤ -4.2
A24U A28U A39C G59C A60U A66G G68C C79G G81A C116G C125U | ≤ -4.2
A24U A29G A52C G68C C129A | ≤ -4.2
A24U A29G C38U A49C G50U G59A U135A | ≤ -4.2
A24U A29U C57U A66C C95A | ≤ -4.2
A24U A29U C57U C69A G83A C87G U148G | ≤ -4.2
A24U A29U C72G G84A C95G U109C | ≤ -4.2
A24U A29U U151A | ≤ -4.2

Variant | polymerase ribozyme fitness (log ratio)
A24U A30C C79U G80C C85U C96G G117C | ≤ -4.2
A24U A30U C87A U104A | ≤ -4.2
A24U A30U U77G G94A A107C A115C C118A U148A | ≤ -4.2
A24U A37C C75U A97C A110C G141U U144G U145A | ≤ -4.2
A24U A37G | -2.41
A24U A37G G50C C72G G92U | ≤ -4.2
A24U A37U G42C C75G | -3.99
A24U A39G C79A C131G | ≤ -4.2
A24U A39U A66C G83A A113U G152A | ≤ -4.2
A24U A39U C57G G88C G128C U148A | ≤ -4.2
A24U A39U G86A A97U C99G | ≤ -4.2
A24U A40C G42C C93U C105A U139G | ≤ -4.2
A24U A40G C72A | ≤ -4.2
A24U A40U A66G C79A C85U G117C | ≤ -4.2
A24U A41C C96A C108U G136U | ≤ -4.2
A24U A41C U44A G58C G80C G94U U151C | ≤ -4.2
A24U A41U A107G | ≤ -4.2
A24U A41U G42C A115G C125A | ≤ -4.2
A24U A47G A49C G50A A52G U56A G92U U148G G152U | ≤ -4.2
A24U A49C | ≤ -4.2
A24U A49C A52C G62A C87A C105U | ≤ -4.2
A24U A49C C54U C75G C85A A122U U144C A147C | ≤ -4.2
A24U A49C G58A U61A G88U A98G A110U G141U | ≤ -4.2
